# Measurements published in the supplement of paper PMC3334620.
# Over roughly 33,000 sequences, “E-score (-0.5 to 0.5)” has its median near -0.012; the highest 2% begin near 0.27. Some of the results follow.
# Target: T1, Vhr1 (UniProt P40522)
# T1 sequence: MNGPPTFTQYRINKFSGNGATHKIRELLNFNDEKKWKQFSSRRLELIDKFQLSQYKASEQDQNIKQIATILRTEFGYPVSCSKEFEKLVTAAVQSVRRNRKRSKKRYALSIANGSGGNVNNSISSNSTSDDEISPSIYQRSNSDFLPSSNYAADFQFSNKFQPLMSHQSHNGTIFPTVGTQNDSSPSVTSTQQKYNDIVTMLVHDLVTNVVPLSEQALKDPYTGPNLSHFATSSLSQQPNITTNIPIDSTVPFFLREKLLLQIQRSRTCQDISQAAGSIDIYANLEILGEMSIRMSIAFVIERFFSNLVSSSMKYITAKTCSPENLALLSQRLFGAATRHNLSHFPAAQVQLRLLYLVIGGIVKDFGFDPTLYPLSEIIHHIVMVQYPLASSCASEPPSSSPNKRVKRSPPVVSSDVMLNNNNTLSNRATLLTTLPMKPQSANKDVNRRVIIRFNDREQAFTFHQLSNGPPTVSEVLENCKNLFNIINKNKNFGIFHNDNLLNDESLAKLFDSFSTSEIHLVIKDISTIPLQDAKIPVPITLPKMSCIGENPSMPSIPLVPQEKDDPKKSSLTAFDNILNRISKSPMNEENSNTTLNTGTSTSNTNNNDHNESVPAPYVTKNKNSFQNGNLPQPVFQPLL
# Assay: PBM E-score (8-mer binding enrichment) (E-score (-0.5 to 0.5)); higher = stronger / more preferred TF binding; most listed sequences are background and not binding sites
# Settings: protein concentration: 200 nM; construct: GST-full length
# Experimental: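 Universal 'all 10-mer' protein binding microarrays (Agilent AMADID 015681) probed with GST-tagged S. cerevisiae TFs (full-length or DBD) made by in vitro transcription/translation (PURExpress), about 100-200 nM. Bound TF was detected with fluorescent anti-GST. Each ungapped 8-mer (which stands for itself and its reverse complement) is scored by the PBM enrichment score (E-score), a modified Wilcoxon-Mann-Whitney statistic from -0.5 to +0.5, computed with the Universal PBM Analysis Suite. Scale: above 0.35 generally sequence-specific binding.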
row,Sequence,PBM E-score
1,CGAGCGGA,0.0286
2,CAGTAATA,0.0862
3,CAATGCAC,0.167
4,GGGACTAC,0.0872
5,AATATGCC,-0.0384
6,CTTGGTAC,0.0505
7,CTTTTCAC,-0.234
8,CTGATTAA,0.191
9,AGACTGCT,-3e-05
10,AGATCTGC,-0.0821
11,GCGTTCCC,-0.16
12,AAACATCT,-0.253
13,GGTATCCA,0.103
14,GTTGGTCA,0.261
15,AACTAGCA,0.145
16,ACATCCTG,0.213
17,AGTAATCG,0.141
18,AATCTGTA,0.128
19,ATCACATC,0.175
20,GTCCTACA,0.0428
21,ACTTGATC,-0.0156
22,GGACGTTA,-0.248
23,AGCATAAG,0.041
24,AAAATCCA,-0.0618
25,GACTACCC,0.254

row,Sequence,PBM E-score
1,AATAGGCG,-0.117
2,AACTCTGT,-0.0226
3,CGCCTACC,-0.0591
4,AGACGTGC,-0.109
5,GCGTAAGA,-0.183
6,AGCCTGTA,-0.0156
7,AACGGAGG,-0.194
8,AGCATTGC,-0.114
9,GGGTACAA,0.178
10,CGGCAAAG,-0.0116
11,ACGTTTCA,-0.142
12,CGACCGGC,0.0826
13,ACCATCAC,0.0424
14,GCGAACTA,0.0464
15,GTAGAGTA,0.0421
16,GGTCACAA,0.0224
17,GACTAATC,0.222
18,GTCCCAAC,0.0257
19,ACTAATTC,0.1
20,CAAGGTGC,-0.203
21,AACCTGGC,-0.0208
22,CGAGATGA,0.0577
23,CCCCTGGC,-0.00704
24,CAGTGAAG,-0.111
25,ATCTTGGG,0.0129

row,Sequence,PBM E-score
1,AGTGATTC,0.285
2,ACGGTAAT,-0.0641
3,ACATCAGA,0.0668
4,AAAGGCCC,-0.253
5,AGCATTCA,-0.194
6,GATGCATC,0.0854
7,ATCCATAA,0.19
8,CATTTAAC,-0.181
9,CTCGCCAC,0.107
10,CCCAAGGA,-0.133
11,GTATCGAC,0.0581
12,ATTCACCG,0.159
13,CAACGGGG,0.0866
14,CCGTCAAG,-0.243
15,AACAATAA,0.0728
16,ATCACCAT,0.265
17,AAACGCCG,-0.0231
18,AGTCTAAC,-0.214
19,ACCTCTGA,0.128
20,GAGAGGGC,-0.255
21,GCAACACA,0.115
22,AACCATGT,0.231
23,ACCGAATG,0.0141
24,CACATGAA,0.0563
25,ATAAGAAC,-0.00548

row,Sequence,PBM E-score
1,TCTTCGAA,-0.0872
2,CTAAGAAC,0.0818
3,AACTTATA,0.0682
4,ATCAGCGG,0.234
5,CAGCACGG,0.11
6,ACGAGTAG,0.0242
7,AGGCTCTC,-0.32
8,CCCTAGTC,0.0644
9,CCACCGTA,0.189
10,GAAGGCTC,-0.228
11,CTGACGCA,-0.244
12,CAATGCCG,-0.0628
13,GATTAGCC,0.18
14,TATTCTCA,0.0274
15,AAATACGG,-0.11
16,AATTTGCC,-0.243
17,CTTCGACC,-0.033
18,ATACCAAT,0.15
19,CCTGAGCG,-0.051
20,TACGTCAA,-0.139
21,ACCATTAA,0.181
22,ATTCCTTA,-0.17
23,AACCCAGA,0.0444
24,AACTAATG,-0.037
25,CTGTGCAA,-0.00898

row,Sequence,PBM E-score
1,CCGTGACC,0.109
2,AACGGTGT,0.0152
3,GCAGTGAA,0.0869
4,CAGTACTC,0.117
5,CACACATA,0.204
6,CTTGTAGA,-0.262
7,CGAACTAG,-0.0301
8,CAGTTTCA,-0.0642
9,CGTCTATC,-0.0309
10,GTACCCAC,0.0583
11,CATAGTAC,0.238
12,GAACCCTC,-0.19
13,GGTTCCGA,0.171
14,CTTCCGCC,-0.0698
15,ATCATTGA,0.127
16,ATGAGAGC,-0.0727
17,GTATGACA,0.0489
18,GAACTTAA,-0.206
19,AGGCACGC,-0.0307
20,TTAACGAA,-0.03
21,GTTTGCTA,0.0847
22,CCACTATC,0.0897
23,GTAACATA,0.245
24,AGCAGTGC,-0.224
25,TTGCGCAA,-0.269

row,Sequence,PBM E-score
1,TAGGCGGA,-0.0289
2,CGGTGGGC,-0.0877
3,CAACCTTG,-0.0309
4,AATTTACT,-0.11
5,TAGGGTCA,0.0976
6,ACATCGAC,0.0775
7,AACTTCGA,0.00079
8,CTCAGATA,0.141
9,AGAACGTG,-0.0258
10,AATAACAT,0.115
11,CTTATTGC,-0.177
12,AAGTATGT,0.0745
13,CAGGCGCA,-0.153
14,AGGCGCAA,-0.0578
15,TTCCGCAA,-0.00609
16,ATCCGAAG,-0.13
17,ATATCCCG,0.135
18,CCCGGACG,-0.133
19,ATCACCAA,0.247
20,AGACCGCC,-0.0196
21,CGCATTTA,-0.0852
22,CCCAGAGG,-0.231
23,ATCCCACC,0.153
24,CGGGTTGA,0.0628
25,CCTGGAAA,-0.0751

row,Sequence,PBM E-score
1,AAACGGCC,-0.0559
2,GTTCCCTA,-0.146
3,ACTACGAA,-0.0367
4,GCTACCTA,-0.0535
5,GTGATGCA,0.24
6,GTGGAGAA,-0.13
7,TACGCGTA,-0.00031
8,CCTTCGCA,-0.171
9,CCGGGGTC,0.0657
10,ATCAAGGC,0.0302
11,ATGGCTGG,0.128
12,ACATCCGT,-0.0304
13,CTCAGCAC,0.0595
14,CACCAGCA,0.0208
15,ACGCAACA,-0.00714
16,GATCACCA,0.12
17,CGGAAAAC,-0.244
18,CATAGATC,0.0557
19,CGTTCGAA,-0.0202
20,AATGCAGA,0.0594
21,CCCCTCGC,-0.0024
22,GGACTACA,0.146
